Experimental data taken from PubChem BioAssay AID1345083 (National Center for Advancing Translational Sciences (NCATS), 2018).
Hit rate of the full screen: of about 94,000 compounds, about 6,200 (6.6%) were called active. Inconclusive means that the source gave no clear call. Such entries were picked first, then a sample of the others. The call rests on the fitted dose curve; in most records, active means well fitted inhibition curve with a large enough effect; inconclusive means small, poorly fitted or top-dose-only effect; inactive means flat fitted curve, though single readings scatter. Potencies beside an inconclusive call are fits to weak or partial responses and may not hold up.

Test: Cytotoxic Profiling in HEK 293 Cell Line of Diverse Libraries Using Quantitative High-Throughput Screening; further: nearly all actives have a fitted effect of over 60% in size
Details: HEK 293 viability, ATP luminescence (CellTiter-Glo), 48-72 h; series mostly up to 115 µM
Procedure, shortened: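 Luminescence from cellular ATP, measured with CellTiter-Glo, indicates HEK 293 viability. Cells plated at 250 cells/well are treated with compound for 48 or 72 hr at 37 degree Celsius before reagent addition.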
Potency means the concentration at half of the fitted maximal effect; tags describe the fitted curve by direction and shape.

Row | SMILES | Potency
1 | CNC(=O)c1cc(C2CC2)nc2c1c(C1CCN([S+](=O)([O-])c3cccc(C(F)(F)F)c3)CC1)nn2C | inconclusive: 44.7 µM [inhibitor, partial curve, poor fit]
2 | O=C(Cn1ccn2nc(-c3ccc(F)cc3)c(CO)c2c1=O)NCCc1ccc(Cl)cc1 | inconclusive: 50.1 µM [inhibitor, partial curve, poor fit]
3 | CC(C)C(=O)N1Cc2ccccc2CC2(CCCN(Cc3ccncc3)C2)C1 (centres undefined) | inactive
4 | COC[C@H]1CCCN1Cc1nc(C2(O)CCN(CCC(C)C)CC2)cs1 | inconclusive: 100 µM [inhibitor, partial curve, poor fit]
5 | O=S(=O)(c1cccnc1)N1CC(c2noc(C3CCCN3CC3CC3)n2)C1 (centres undefined) | inconclusive: 8.91 µM [inhibitor, full curve, poor fit]
6 | CCC(=O)N1CCc2sc(C(=O)NC3CCN(Cc4ccccc4)CC3)cc2C1 | inconclusive: 44.7 µM [inhibitor, partial curve, poor fit]
7 | CNC1CCN(c2ccc(-c3nc(CCCc4ccccc4)no3)cn2)CC1 | inconclusive: 20 µM [inhibitor, full curve, poor fit]
8 | CN1CCCCCC(O)c2cc(C(=O)N3CCN(Cc4ccccc4)CC3)ccc21 (centres undefined) | active: 56.2 µM
9 | COc1ccc(N2CC3CCC(C2)N3CC(C)C)cc1 | inactive
10 | Cc1ccc(C(=O)N2C[C@@H](N)C[C@H]2C(=O)NC(C)C)cc1N1CCNC1=O | inactive
11 | CN1CCN(C(=O)c2cn3cc(-c4cccnc4)sc3n2)CC1 | inactive
12 | N[C@H]1CCN2C(=O)c3cc(-c4ccccc4F)ccc3NC(=O)[C@H]12 | inactive
13 | COc1ccc(S(=O)(=O)NC[C@H]2COCc3nc4cc(C)ccc4n32)cc1 | inconclusive: 50.1 µM [inhibitor, partial curve]
14 | Cc1cccc(CN2CCOc3c(O)cc(-c4ccccc4C)cc3C2)n1 | inconclusive: 56.2 µM [inhibitor, partial curve, poor fit]
15 | Cc1noc(-c2cn(C3CCCN(C(=O)c4ccc(C(C)(C)C)cc4)C3)nn2)n1 (centres undefined) | inconclusive: 79.4 µM [inhibitor, single point]
16 | O=C(C1CC(=O)N(c2n[nH]c3cccc(F)c23)C1)N1CCCC1 (centres undefined) | inactive
17 | COC(=O)C1=CN(CC(=O)Nc2ccccc2C(F)(F)F)S(=O)(=O)N=C1C | inactive
18 | COc1ccc(N2CCN(c3nc(C(=O)N4CCCC(C)C4)cs3)CC2)cc1 (centres undefined) | inconclusive: 35.5 µM [inhibitor, partial curve, poor fit]
19 | CC(=O)Nc1cccc(C(=O)N2CCC(n3cc(-c4nc(C(C)C)no4)nn3)C2)c1 (centres undefined) | inactive
20 | O=C1Cc2c(-c3ccc(C(=O)N4CCOCC4)cc3)n[nH]c2CN1Cc1ccccc1 | inconclusive: 126 µM [inhibitor, single point]
21 | COc1ccc(NC(=O)c2c(C)nc3n2CCC(Nc2ccccc2C)C3)cn1 (centres undefined) | inconclusive: 112 µM [inhibitor, single point]
22 | Cc1nn(-c2ccccc2)c2c1C(C1CC1)N(C1CCN([S+](C)(=O)[O-])C1)C2=O (centres undefined) | inconclusive: 89.1 µM [inhibitor, partial curve]
23 | COCCOC1CN(C2CCN(C(=O)Nc3ccccc3)CC2)C12CCCCC2 (centres undefined) | inactive
24 | O=C(NCc1cccc(F)c1)c1nc2c(o1)CCN(Cc1ccc3[nH]ccc3c1)CC2 | inconclusive: 112 µM [inhibitor, partial curve]
25 | CNC(=O)[C@H]1C[C@]2(CCCCN(CCO)C2=O)N(C(=O)c2cccc(OC)c2)[C@H]1c1ccco1 | inactive

Row | SMILES | Potency
26 | O=c1[nH]c(N2CCc3ccccc3C2)nc2c1CCN(Cc1cccs1)CC2 | inactive
27 | O=C(c1n[nH]c2c1CCC2)N1CCC(c2nccn2Cc2ccccn2)CC1 | inactive
28 | COc1cc(C(=O)NC2CCN(c3cc(-c4ccccc4)[nH]n3)C2)cc(OC)c1OC (centres undefined) | inconclusive: 39.8 µM [inhibitor, partial curve]
29 | Cc1ccccc1C(=O)N1CCN(c2nccc(Nc3ccccc3Cl)n2)CC1 | active: 35.5 µM
30 | O=C(NC1CCCCC1)N1CCC(Oc2ncccc2C(=O)N2CCCCC2)C1 (centres undefined) | inactive
31 | COCCN1CCCCCC(O)c2cc(C(=O)NCc3ccc(C)o3)ccc21 (centres undefined) | inconclusive: 100 µM [inhibitor, single point]
32 | Cc1ccc(NC(=O)CN2C(=O)NC(c3ccccc3Cl)C3=C2COC3=O)cc1 (centres undefined) | inconclusive: 39.8 µM [inhibitor, partial curve, poor fit]
33 | CCCN1CCCC12Cc1ccccc1CN([S+](=O)([O-])c1ccccc1)C2 (centres undefined) | inconclusive: 50.1 µM [inhibitor, partial curve, poor fit]
34 | CCc1ccc(NC(=O)C2CCc3nc(N4CCN(C(=O)C(C)C)CC4)sc3C2)cc1 (centres undefined) | inconclusive: 63.1 µM [inhibitor, partial curve, poor fit]
35 | COc1cc(OC)c(CN2CCCCCC2c2ccco2)c(OC)c1 (centres undefined) | inconclusive: 56.2 µM [inhibitor, partial curve, poor fit]
36 | Cc1cc(Cl)ccc1OCCN1CCN(CC2(O)CCCNC2)CC1 (centres undefined) | active: 12.6 µM
37 | Cc1cnc(C2CN(Cc3cccc(C#N)c3)C2)n1Cc1ccccc1 | inconclusive: 56.2 µM [inhibitor, partial curve, poor fit]
38 | Oc1cccc(CN(Cc2cn(-c3ccccc3)nn2)C2CC2)c1 | inconclusive: 56.2 µM [inhibitor, partial curve, poor fit]
39 | COc1ccc(NC(=O)N2CCc3c(C(=O)NC(C)C)cccc32)cc1 | active: 25.1 µM
40 | O=C(Cc1ccc(Br)cc1)N1CCCN(c2cc(-c3ccc(F)cc3)[nH]n2)CC1 | inconclusive: 50.1 µM [inhibitor, partial curve, poor fit]
41 | COc1ccc(C(=O)N2CCC3(CC2)COc2ccccc2NC3=O)cc1 | inconclusive: 89.1 µM [inhibitor, single point]
42 | CN(C)C(=O)c1ccc(OC2CCN(C(=O)c3ccccc3F)CC2)nc1 | inactive
43 | COc1cccc(-c2nc3cnccn3c2NCCC(=O)N2CCN(C)CC2)c1 | inactive
44 | C[C@@H]1CN(C(=O)Cc2cccnc2)C[C@H]1c1nc(-c2ccncc2)no1 | inactive
45 | CC(C)Cc1noc(-c2ccc(N3CCC(O)CC3)nc2)n1 | inactive
46 | COc1ccc(-c2noc(-c3ccc(N4C[C@H]5CC[C@H]4C5)nc3)n2)cc1 | inconclusive: 44.7 µM [inhibitor, partial curve, poor fit]
47 | O=C(C1CCCCC(=O)N1Cc1ccccc1)N1CCc2ccccc2C1 (centres undefined) | inconclusive: 31.6 µM [inhibitor, partial curve, poor fit]
48 | O=C(Nc1ccc(Cl)cc1)c1nc2c(o1)CCN(Cc1cnc[nH]1)CC2 | inconclusive: 100 µM [inhibitor, partial curve, poor fit]
49 | CN1CC(=O)N(C2CCC2)Cc2c(NCCc3ccc(Cl)cc3)ncnc21 | inconclusive: 50.1 µM [inhibitor, partial curve, poor fit]
